Where two headings read alike, the source gives them in different places.

The test system of this assay is expanded OPCs. In words: cells. To be noted: Rattus norvegicus, 72 h. Here is the method: Having established a consistent assay for measuring OL differentiation in vitro, the next step was to utilize this assay to assess the ability of a wide array of compounds to promote OL differentiation. Prior to library screening, we first established the maximum non-toxic dose of each compound in the library. […] Therefore, we added each compound in the NIH clinical collection (NCC) library to OPCs at 10, 1, and 0.1 µM concentrations. Three days later, we assessed viability of the treated cells by measuring AlamarBlue fluorescence, a measure of cell viability (see “Methods” section). […] Appropriately, we established three sets of screening concentrations for library compounds: non-toxic compounds were tested at 10 and 2 µM, slightly toxic compounds (only toxic at 10 µM) were tested at 2 and 0.4 µM, and very toxic compounds were tested at 0.4 and 0.08 µM.
OPCs were expanded in vitro by seeding into PDL-coated tissue culture flasks at 1000–2000 cells/cm^2 in differentiation media supplemented with 10 ng/ml PDGF-AA. Proliferating OPCs were fed every 2–3 days and supplemented with 2–3× concentration of PDGF as needed to prevent OPC differentiation. After 6–7 days of proliferation, OPCs were harvested by trypsinization, plated into PDL-coated 96-well Falcon plates and centrifuged at 200×g to facilitate cell attachment, survival, and even distribution of cells. Expanded OPCs were seeded in differentiation media at 10,000 cells/well and incubated for 2 h at 37 °C, 10 % CO2 prior to addition of compounds. The NCC library was diluted and added to cells at 10, 1, and 0.1 µM; each concentration was tested in quadruplicate. As a positive control for the induction of toxicity, 5 ng/ml tunicamycin was added to 8 wells in each plate. Three days later, a 1:10 dilution of alamarBlue® (AB) was added to each well and cells were incubated 4 h at 37 °C, 10 % CO2. AB fluorescence was measured using a PerkinElmer Victor II fluorescence microplate reader (PerkinElmer, Waltham, MA) with 560 nm excitation/590 nm emission filters. For library screening, the highest concentration of each compound was adjusted to a minimally toxic concentration based on this toxicity data. Compounds were additionally tested at a second concentration that was 1/5th of the top concentration. The final concentration of DMSO in each well was 0.1 %.

In the case of `COc1cc2c(cc1OC)C(=O)C(CC1CCN(Cc3ccccc3)CC1)C2` (stereo not drawn) [Donepezil, reference compound], under “read-out: 0.1 µM (% DMSO), alamarBlue viability, NCC library compound at 0.1 µM, sheet "All Tox data"”, the viability at 0.1 µM is 114%. In addition, for the setting “read-out: 1 µM (% DMSO), alamarBlue viability, NCC library compound at 1 µM, sheet "All Tox data"”, the viability at 1 µM amounted to 145%. Moreover, the viability at 10 µM (read-out: 10 µM (% DMSO), alamarBlue viability, NCC library compound at 10 µM, sheet "All Tox data") came to 135%.

Turning to `COC(=O)C1=C(C)NC(C)=C(C(=O)OC)C1c1ccccc1[N+](=O)[O-]` [Nifedipine], the viability at 0.1 µM (read-out: 0.1 µM (% DMSO)) came out at 85.2%. Under “read-out: 1 µM (% DMSO)”, the viability at 1 µM was 80%. In addition, for the setting “read-out: 10 µM (% DMSO)”, the viability at 10 µM turned out to be 12.4%.

Take `CCn1cc(C(=O)O)c(=O)c2cc(F)c(N3CCN(C)CC3)cc21` [Pefloxacin]: for the setting “read-out: 0.1 µM (% DMSO)”, the viability at 0.1 µM stood at 87.9%. Further, the viability at 1 µM (read-out: 1 µM (% DMSO)) is 87.6%. For the same compound, under “read-out: 10 µM (% DMSO)”, the viability at 10 µM came out at 89.7%.

Consider `Nc1nc2ccc(OC(F)(F)F)cc2s1` [Riluzole], for which the viability at 0.1 µM (read-out: 0.1 µM (% DMSO)) came to 76.5%. The viability at 1 µM (read-out: 1 µM (% DMSO)) is 87.3%. Moreover, for the setting “read-out: 10 µM (% DMSO)”, the viability at 10 µM was 75.4%.
